The full ranking holds about 81,000 sequences; the median of “one-hybrid fitness for binding NBS DNA” is about -0.1, and the highest 2% start at about 0.36. This is one part of the list.
B1: Caulobacter ParB omega fusion; a variant is named by its letters at X, in order, B8GW30 (parent)
chain: MESVVVGEPGMSEGRRGLGRGLSALLGEVDAAPAQAPGEQLGGSREAPIEILQRNPDQPRRTFREEDLEDLSNSIREKGVLQPILVRPSPDTAGEYQIVAGERAWRAAQRAGLKTVPIMVRELDDLAVLEIGIIENVQRADLNVLEEALSYKVLMEKFERTQENIAQTIGKSXSHVANXMRLLXLPDEVQSYLVSGELTAXHARAIAAAADPVALAKQIIEGGLSVRETEALARKAPNLSAGKSKGGRPPRVKDTDTQALESDLSSVLGLDVSIDHRGSTGTLTITYATLEQLDDLCNRLTRGI

Variants of: B1
Assay: one-hybrid fitness for binding NBS DNA (the Noc-binding site; scaled: cognate 1, non-cognate 0); higher = stronger binding
Details: with NBS DNA site
Method in brief: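 In E. coli USO, a HIS3 reporter with its site placed 19 bp from the promoter was used to select Caulobacter ParB variants randomised at four specificity codons. Growth lasted 48 hours at 37°C on histidine-free M9 containing 0.1 mM IPTG and 5 mM 3-AT. Fitness was taken as the log change in variant-to-wild-type read ratio from Illumina sequencing of pre- and post-selection plasmids, rescaled between the non-cognate and cognate sites.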

Row | Variant | one-hybrid fitness for binding NBS DNA
1 | QPDG | ≤ 0.2
2 | CRYF | ≤ 0.2
3 | IIMG | ≤ 0.2
4 | YYWL | ≤ 0.2
5 | EFVR | ≤ 0.2
6 | ACWR | ≤ 0.2
7 | RVED | ≤ 0.2
8 | NYTV | ≤ 0.2
9 | AVDC | ≤ 0.2
10 | PACF | ≤ 0.2
11 | TDHK | ≤ 0.2
12 | RWYE | ≤ 0.2
13 | TNMY | ≤ 0.2
14 | TDRG | ≤ 0.2
15 | QNPC | ≤ 0.2
16 | IADC | ≤ 0.2
17 | VVLL | ≤ 0.2
18 | HADW | ≤ 0.2
19 | VYRF | ≤ 0.2
20 | KRDR | 0.336
21 | RYQL | ≤ 0.2
22 | AQAT | ≤ 0.2
23 | PLCC | ≤ 0.2
24 | MRGT | ≤ 0.2

Row | Variant | one-hybrid fitness for binding NBS DNA
25 | EPIM | ≤ 0.2
26 | AARL | ≤ 0.2
27 | TVEY | ≤ 0.2
28 | RTEY | ≤ 0.2
29 | DNQT | ≤ 0.2
30 | WINT | ≤ 0.2
31 | RTST | 0.565
32 | LAFL | ≤ 0.2
33 | ACNA | ≤ 0.2
34 | ANCR | ≤ 0.2
35 | RNIR | ≤ 0.2
36 | FLTV | ≤ 0.2
37 | NDQG | ≤ 0.2
38 | RGEL | ≤ 0.2
39 | TPTA | ≤ 0.2
40 | EGDG | ≤ 0.2
41 | RRHD | ≤ 0.2
42 | LWPS | ≤ 0.2
43 | NIQI | ≤ 0.2
44 | DDTI | ≤ 0.2
45 | HKDT | ≤ 0.2
46 | LESH | ≤ 0.2
47 | LVCA | ≤ 0.2
48 | EAHR | ≤ 0.2

Row | Variant | one-hybrid fitness for binding NBS DNA
49 | GRKY | ≤ 0.2
50 | KRVS | 0.395
51 | GQGG | ≤ 0.2
52 | QHMK | ≤ 0.2
53 | HWAD | ≤ 0.2
54 | WNLN | ≤ 0.2
55 | YKNR | ≤ 0.2
56 | VGFS | ≤ 0.2
57 | NSDP | ≤ 0.2
58 | RAPF | ≤ 0.2
59 | SSAR | ≤ 0.2
60 | PHNG | ≤ 0.2
61 | CSYW | ≤ 0.2
62 | RHHM | ≤ 0.2
63 | LDPT | ≤ 0.2
64 | LCVR | ≤ 0.2
65 | YVGL | ≤ 0.2
66 | TQQL | ≤ 0.2
67 | IMKC | ≤ 0.2
68 | SAAG | ≤ 0.2
69 | TYRY | ≤ 0.2
70 | QVMG | ≤ 0.2
71 | RAYN | ≤ 0.2
72 | VVSE | ≤ 0.2

Row | Variant | one-hybrid fitness for binding NBS DNA
73 | CQPT | ≤ 0.2
74 | RWPE | ≤ 0.2
75 | IGPV | ≤ 0.2
76 | RTGD | ≤ 0.2
77 | AVTR | ≤ 0.2
78 | CHIS | ≤ 0.2
79 | PTTP | ≤ 0.2
80 | THTD | ≤ 0.2
81 | SSSN | ≤ 0.2
82 | RQNH | 0.34
83 | YCYR | ≤ 0.2
84 | IDLT | ≤ 0.2
85 | CIQD | ≤ 0.2
86 | PDHA | ≤ 0.2
87 | AQIF | ≤ 0.2
88 | DMTF | ≤ 0.2
89 | DNMS | ≤ 0.2
90 | WTLP | ≤ 0.2
91 | TNVD | ≤ 0.2
92 | RMSQ | ≤ 0.2
93 | RIIC | ≤ 0.2
94 | HSAC | ≤ 0.2
95 | TINT | ≤ 0.2
96 | ESPF | ≤ 0.2

Row | Variant | one-hybrid fitness for binding NBS DNA
97 | RQVC | ≤ 0.2
98 | RLIG | ≤ 0.2
99 | DFYR | ≤ 0.2
100 | MHLC | ≤ 0.2
101 | TIPI | ≤ 0.2
102 | RIEI | ≤ 0.2
103 | EMLG | ≤ 0.2
104 | IYFF | ≤ 0.2
105 | VQIC | ≤ 0.2
106 | PSWQ | ≤ 0.2
107 | CNLG | ≤ 0.2
108 | GENW | ≤ 0.2
109 | PIES | ≤ 0.2
110 | TPKG | ≤ 0.2
111 | QTDM | ≤ 0.2
112 | ASRD | ≤ 0.2
113 | QRPI | ≤ 0.2
114 | QMAI | ≤ 0.2
115 | EYYG | ≤ 0.2
116 | EPPR | ≤ 0.2
117 | KEVK | ≤ 0.2
118 | HKYD | ≤ 0.2
119 | WWNK | ≤ 0.2
120 | TTHA | ≤ 0.2

Row | Variant | one-hybrid fitness for binding NBS DNA
121 | SIFC | ≤ 0.2
122 | SCGV | ≤ 0.2
123 | WPWR | ≤ 0.2
124 | AITK | ≤ 0.2
125 | RYEW | ≤ 0.2
126 | RCST | 0.531
127 | VQLP | ≤ 0.2
128 | YCCG | ≤ 0.2
129 | QKFA | ≤ 0.2
130 | SEDS | ≤ 0.2
131 | ARWR | ≤ 0.2
132 | RMGR | 0.479
133 | PKHD | ≤ 0.2
134 | LTNG | ≤ 0.2
135 | TQDT | ≤ 0.2
136 | IGAI | ≤ 0.2
137 | GHYR | ≤ 0.2
138 | TARS | ≤ 0.2
139 | FGKT | ≤ 0.2
140 | QEPS | ≤ 0.2
141 | WVQT | ≤ 0.2
142 | QAGW | ≤ 0.2
143 | MIQN | ≤ 0.2
144 | ALRC | ≤ 0.2

Row | Variant | one-hybrid fitness for binding NBS DNA
145 | TEIL | ≤ 0.2
146 | LGPL | ≤ 0.2
147 | QSRM | 0.402
148 | AFQL | ≤ 0.2
149 | PRSA | ≤ 0.2
150 | FSHY | ≤ 0.2
151 | AAMF | ≤ 0.2
152 | DVSR | ≤ 0.2
153 | LIPP | ≤ 0.2
154 | SINM | ≤ 0.2
155 | LLLK | ≤ 0.2
156 | WWKR | 0.203
157 | APLF | ≤ 0.2
158 | RVKR | 0.665
159 | QATT | 0.379
160 | KLHI | ≤ 0.2
161 | YSNW | ≤ 0.2
162 | SLLK | ≤ 0.2
163 | ANTN | ≤ 0.2
164 | KEAG | ≤ 0.2
165 | PPCD | ≤ 0.2
166 | CAMT | ≤ 0.2
167 | RCRP | ≤ 0.2
168 | TNCY | ≤ 0.2

Row | Variant | one-hybrid fitness for binding NBS DNA
169 | FARC | ≤ 0.2
170 | PIMQ | ≤ 0.2
171 | DPPT | ≤ 0.2
172 | YSYA | ≤ 0.2
173 | RARE | ≤ 0.2
174 | GKNY | ≤ 0.2
175 | MKLR | ≤ 0.2
176 | NRNP | ≤ 0.2
177 | IPSN | ≤ 0.2
178 | PATT | ≤ 0.2
179 | QMTS | 0.403
180 | HHHV | ≤ 0.2
181 | MLDR | ≤ 0.2
182 | DSWT | ≤ 0.2
183 | WATV | ≤ 0.2
184 | ALAF | ≤ 0.2
185 | QKWD | 0.405
186 | VIRY | ≤ 0.2
187 | VMPA | ≤ 0.2
188 | PAPV | ≤ 0.2
189 | VVPS | ≤ 0.2
190 | RQYP | ≤ 0.2
191 | SRKS | ≤ 0.2
192 | IVIG | ≤ 0.2

Row | Variant | one-hybrid fitness for binding NBS DNA
193 | QQHY | 0.259
194 | SYLS | ≤ 0.2
195 | MYPF | ≤ 0.2
196 | QGTQ | ≤ 0.2
197 | DRML | ≤ 0.2
198 | DDGP | ≤ 0.2
199 | KCLS | ≤ 0.2
200 | CKAK | ≤ 0.2
201 | RYKR | 0.744
202 | PFNN | ≤ 0.2
203 | RQHG | ≤ 0.2
204 | TQNA | ≤ 0.2
205 | ESGF | ≤ 0.2
206 | RMCT | 0.366
207 | LRFM | ≤ 0.2
208 | NHTF | ≤ 0.2
209 | LPSP | ≤ 0.2
210 | QHPW | ≤ 0.2
211 | VGFC | ≤ 0.2
212 | DAVG | ≤ 0.2
213 | DDGC | ≤ 0.2
214 | CWLS | ≤ 0.2
215 | RYMG | ≤ 0.2
216 | ADVL | ≤ 0.2

Row | Variant | one-hybrid fitness for binding NBS DNA
217 | TLVV | ≤ 0.2
218 | NSHV | ≤ 0.2
219 | NFLD | ≤ 0.2
220 | HISI | ≤ 0.2
221 | DMAL | ≤ 0.2
222 | RCQC | ≤ 0.2
223 | GLRC | ≤ 0.2
224 | HHEI | ≤ 0.2
225 | RWQY | ≤ 0.2
226 | QKTR | 0.646
227 | WRQS | ≤ 0.2
228 | NNQR | ≤ 0.2
229 | YAYG | ≤ 0.2
230 | HFCT | ≤ 0.2
231 | QWWC | ≤ 0.2
232 | VPYC | ≤ 0.2
233 | RCDE | ≤ 0.2
234 | THAE | ≤ 0.2
235 | RVAM | ≤ 0.2
236 | QIEK | ≤ 0.2
237 | VLNC | ≤ 0.2
238 | AVVG | ≤ 0.2
239 | PNSR | ≤ 0.2
240 | FPSI | ≤ 0.2

Row | Variant | one-hybrid fitness for binding NBS DNA
241 | LSFR | ≤ 0.2
242 | AFYR | ≤ 0.2
243 | TYKT | ≤ 0.2
244 | HQDK | ≤ 0.2
245 | ADTT | ≤ 0.2
246 | WHVF | ≤ 0.2
247 | ALLL | ≤ 0.2
248 | IGDM | ≤ 0.2
249 | TNPS | ≤ 0.2
250 | QYFR | 0.366
251 | IYVL | ≤ 0.2
252 | ESIK | ≤ 0.2
253 | STAS | ≤ 0.2
254 | SDLM | ≤ 0.2
255 | FRFS | ≤ 0.2
256 | KAMT | ≤ 0.2
257 | RLYK | ≤ 0.2
258 | ECSD | ≤ 0.2
259 | RVWR | 0.248
260 | TPVI | ≤ 0.2
261 | VGMS | ≤ 0.2
262 | AYVG | ≤ 0.2
263 | RGKI | ≤ 0.2
264 | MWAL | ≤ 0.2

Row | Variant | one-hybrid fitness for binding NBS DNA
265 | RNGC | ≤ 0.2
266 | GWDP | ≤ 0.2
267 | DADT | ≤ 0.2
268 | HTFC | ≤ 0.2
269 | TIHR | ≤ 0.2
270 | ILCQ | ≤ 0.2
271 | QMIC | ≤ 0.2
272 | CHNC | ≤ 0.2
273 | QGER | ≤ 0.2
274 | MIWR | ≤ 0.2
275 | SPQT | ≤ 0.2
276 | EQPS | ≤ 0.2
277 | WKCS | ≤ 0.2
278 | RVFA | ≤ 0.2
279 | QGIT | ≤ 0.2
280 | RCCV | ≤ 0.2
281 | NSIS | ≤ 0.2
282 | QAWQ | ≤ 0.2
283 | WLSL | ≤ 0.2
284 | SVNY | ≤ 0.2
285 | RGTQ | ≤ 0.2
286 | RWHC | ≤ 0.2
287 | MSPL | ≤ 0.2
288 | WDDS | ≤ 0.2

Row | Variant | one-hybrid fitness for binding NBS DNA
289 | CLEA | ≤ 0.2
290 | MVGC | ≤ 0.2
291 | CNSA | ≤ 0.2
292 | HPRG | ≤ 0.2
293 | PHPW | ≤ 0.2
294 | SMHR | ≤ 0.2
295 | TTNS | ≤ 0.2
296 | APCM | ≤ 0.2
297 | CMQR | ≤ 0.2
298 | TKAV | ≤ 0.2
299 | PQKC | ≤ 0.2
300 | ISVR | ≤ 0.2
301 | RTAQ | ≤ 0.2
302 | FDGS | ≤ 0.2
303 | ISTF | ≤ 0.2
304 | VNDW | ≤ 0.2
305 | LLHF | ≤ 0.2
306 | QTYW | ≤ 0.2

Source: a collection of fitness landscapes (doi:10.1016/j.celrep.2020.107928)
